This note sets out measurements from publication PMC12136788.

Some of the results follow.

B1: 25140584_25140782_2291_CDS_ENSMUSG00000026965_ENSMUST00000028341|mouse|control|control (ssRNA)
RNA: GGGAGUUCUACAGUCCGACGAUCUGCCCAGAAGAGCAGUAGCUCCUCUUCCUUCUGGUCAGCCUGGGAGGCCAUGCCUGAGUCACUCUCAUCAUCACUGUCAAUCAGCACCAUGUUGUCCCUAUCCUGAGGCCGCUCUUCCUCCAACAGAGGAUUGAGCAUCA
B2: chr4:17845017:17845018:+_ENSG00000109805_ENST00000514176|hu_mus|hu_hu_hu_mus_False|78_88 (ssRNA)
RNA: GGGAGUUCUACAGUCCGACGAUCGCUCUCUUAACUUGUAUCUUCAUGAGAAAUUGGGCAAGGUUAAAGUUUACUUUUCUGUAGCGCAGCUGUUUUGGCUCGUCUGGGUAAUCUCAUCUUCAUUUCUGAUGGUGGUUCAUGAUCCAACAGAGGAUUGAGCAUCA
B3: chrX:132779699:132779700:+_ENSMUSG00000042712_ENSMUST00000048687|mus_mus|motif|central (ssRNA)
RNA: GGGAGUUCUACAGUCCGACGAUCAUUGAAGCAAGCUGUCUCUUCUGGCCGCUGGCCUCUCGCACCACCGUCUGCAAGGCGGAAGGGAGCUGGUACCCAGAUGGAAACAAGGACCAGACUAGCAGGAUUUCUGCACACGUCGACCAACAGAGGAUUGAGCAUCA
B4: chr11:20128097:20128098:-_ENSMUSG00000044066_ENSMUST00000050611|mus_mus|motif|central (ssRNA)
RNA: GGGAGUUCUACAGUCCGACGAUCUGCUUUUGACCAAUUCUAGGUUUUAUAGGAUAUUUUACAUUUAACUUAAAUUAUUUGCGGGAAAAGUUUUGUUUUAGCCUCUUGAAAGCACUUUAUGUACCAUGUACAGUAUAAGAAAUACAACAGAGGAUUGAGCAUCA
B5: chr5:66692119:66692120:-_ENSMUSG00000029207_ENSMUST00000159786|mus_hu|motif|central (ssRNA)
RNA: GGGAGUUCUACAGUCCGACGAUCAAUACCACUGCGUAAGGAAUUUGGACAUCUUUCUCCCACUCGUGUAGGGAAUUCGGAGAUUCCCUGACAAUAGAUCUUUCCAUACCUGCUCUUCUUAGUAUAUGCCCAGAAUCAUUCUGGCAACAGAGGAUUGAGCAUCA
B6: chr9:110451855:110451856:+_ENSMUSG00000044791_ENSMUST00000153838|mus_mus|motif|central (ssRNA)
RNA: GGGAGUUCUACAGUCCGACGAUCAACUGGCAAAGACAUGAGUUUAUCAUGGUGUGGUGACAACAAAGGUUCCAUUUCCCGGAAUGGACUUUUUGACGUAUUAUGCUGCCUACAAGUAUCAUCUGAGUCCCUUUCUCUGCAUCUCAACAGAGGAUUGAGCAUCA
B7: chr1:46159212:46159213:+_ENSG00000159596_ENST00000372025|hu_mus|hu_hu_hu_mus_True|18_68 (ssRNA)
RNA: GGGAGUUCUACAGUCCGACGAUCUCUGAUCCCUCCCAAGAAAGCUAGGAAACCGGCUCCAUAAGCCAUCUGAGUAAAAGCUAGGACGGGGAUAUAAGACUUUGUUAUUACCAUGAGCAGUGGUGGAGCAGUAAAGGGGAUUAACAACAGAGGAUUGAGCAUCA
B8: chr2:187371472:187371473:+_ENSG00000065548_ENST00000337859|hu_mus|FALSE|FALSE (ssRNA)
RNA: GGGAGUUCUACAGUCCGACGAUCACUGGCCACAGUGAUACCUGUCUCUUCUACAUCUCUUGGGACGUACAGGCUUAUAUCUAUGUCAUUUACACCCAUAGAAUCAUCAACCUCAUCACCACCUGUUCCCUGAAUGUAACGGGUCAACAGAGGAUUGAGCAUCA
B9: chr8:109229674:109229675:-_ENSG00000104408_ENST00000220849|hu_hu|FALSE|FALSE (ssRNA)
RNA: GGGAGUUCUACAGUCCGACGAUCGUUUGUUAUGACUGCUGUAGUCAAAUAGCGAAGAAUGUGUGGACACAUUGUCUGAAUUGCAUUAAGAUAUUGUGGCUGAUAAAGGAAGAGGUCAAUAAUAUUAUCGCGACCUUUGGGGUGCAACAGAGGAUUGAGCAUCA
B10: 66262441_66262561_646_CDS_ENSMUSG00000047534_ENSMUST00000052201|mouse|control|control (ssRNA)
RNA: GGGAGUUCUACAGUCCGACGAUCAUAGGUUUGUUGCAACUGAGCUUUCUUAUCCGUGUUAGGAGGAAAGUCUUUGGUGUGUUCACCCUGUGGUGAUCCCAACAUGCUACUGCUCCUUGUCAGUUGUUCUUGUUUGUCACGCUGCAACAGAGGAUUGAGCAUCA
B11: 132215306_132215426_5256_3pUTR_ENSG00000072364_ENST00000265343|human|control|control (ssRNA)
RNA: GGGAGUUCUACAGUCCGACGAUCUCUUCAUUUAAAGGUAAGAUUUAAGGCACACCAAACAUGAUAGGGGCAUGAAAAAUAAAGUAUAGAGGGUACAUUUCUUAUCUUAGACUUCUAUAUGCACCUUGUAGCAAAAGGUACUUUCAACAGAGGAUUGAGCAUCA
B12: chr3:148802587:148802588:-_ENSG00000071794_ENST00000310053|hu_mus|hu_hu_hu_mus_False|1_108 (ssRNA)
RNA: GGGAGUUCUACAGUCCGACGAUCUCCAACCACAUGACCUCUCAUAGUUCCAAAUAAAACCAAAUCUUGCUCUUCAUCACUCGUUAGGAAGUCAUCUGGAGGAAUAAUGUCUUGGAAUUCAAAAUGUGGCAAGAAAGUUGGAUACAACAGAGGAUUGAGCAUCA
B13: chr18:9122563:9122564:+_ENSG00000178127_ENST00000318388|hu_hu|motif|central (ssRNA)
RNA: GGGAGUUCUACAGUCCGACGAUCGACCUGAAUGUGAUACUUUCCAACUGGCUUUCGAUUAUACAUUGUAUAAAAAGUUGCGGCUUCAUAUACUCUCAUUGGAGGUACUUGUAAAACUUCUGCAACCUUGUUCAUAGCAGAGAUCAACAGAGGAUUGAGCAUCA
B14: 88224870_88224990_542_CDS_ENSMUSG00000050144_ENSMUST00000057935|mouse|control|control (ssRNA)
RNA: GGGAGUUCUACAGUCCGACGAUCAUCGAAGGUCCCGUGGUAGAGGCUCUUGCCCUUCUGGACCUGCAGGCGGGUGCGGAUGAGGGUGAACGGGUACACGCUGACCCUGAUCAUCAUUGUCAUAGCAACACCAAACACAUAGAACAACAGAGGAUUGAGCAUCA
B15: chr2:183846084:183846085:-_ENSG00000061676_ENST00000360982|hu_hu|FALSE|FALSE (ssRNA)
RNA: GGGAGUUCUACAGUCCGACGAUCAAGGUACUGCACGUAAUACCUCUGCAUUACAGGUCCGUAUUUCCUCACAUGUGCUCUAAGUUCUUCCAUGUAAAAUAUUAAUUCAGCAAUGUGCUUAUCUAUAAAGUCGUCUGCACUCUUCAACAGAGGAUUGAGCAUCA
B16: chr4:95690885:95690886:+_ENSMUSG00000028572_ENSMUST00000156910|mus_mus|mus_mus_mus_hu_False|88_108 (ssRNA)
RNA: GGGAGUUCUACAGUCCGACGAUCUUUAUUUUUAGAAAAAUACCAUGAGCAUGCUAAUUCAAAGGCUUAUUUUAUUUUACCAGAAGUCACAGGCAAGCAGACACUACAAGAAUAUAUGAAAAUGAAACUCAACAAUAUAACUGUCAACAGAGGAUUGAGCAUCA
B17: chr12:70286429:70286430:+_ENSMUSG00000043998_ENSMUST00000060579|mus_hu|motif|central (ssRNA)
RNA: GGGAGUUCUACAGUCCGACGAUCGCACUCUUGCUGCUUCAGUUUCCACAUCUUUUUGAAGACAUGGUAAAAGUCUGGGGCGGAGUAGUGAUCCUCUUCUAGGAAAAGUAUAAGGCCAGCAUAAUCUCGAAGAAUUUUCACUCUCAACAGAGGAUUGAGCAUCA
B18: chr2:5814250:5814251:-_ENSMUSG00000025816_ENSMUST00000102981|mus_hu|mus_mus_mus_hu_True|38_78 (ssRNA)
RNA: GGGAGUUCUACAGUCCGACGAUCUUCCUUUCCGGUUUCUGAAUUUCUGGUAGAACUGCACAGAAAGGUUUGAUAACUUCUAAAAAUUUGAUGCCCAUGGCGGCGGCUGGGGAGGCCCAGGGGGAAACCGCGGCCUCGGCGCUGCAACAGAGGAUUGAGCAUCA
B19: chr7:56126341:56126342:+_ENSG00000146731_ENST00000540286|hu_mus|hu_hu_hu_mus_True|8_8 (ssRNA)
RNA: GGGAGUUCUACAGUCCGACGAUCCAUGUUUCUCCUCUUGGCUCUGCGCAGAGCUACGAUCCCUUCUUUCGCAAGGGCAUCUAAGGAAAAGGGGUCAAUCCCCUUUUGAUUAAUAACGACAAAUCCUUUAUCUGAAUCACCACACAACAGAGGAUUGAGCAUCA
B20: chr5:128448638:128448639:+_ENSG00000066583_ENST00000173527|hu_mus|hu_hu_hu_mus_False|48_48 (ssRNA)
RNA: GGGAGUUCUACAGUCCGACGAUCGGCACUCGCCUUAAUUAGGUUCUGAAUUUCCUUGAACUUCGGGUGGUCUUUGUCAGCCACCAGCUGAAGCAGAACAGCCUCACUAGUGGUCACGAUGAUCCCAGUGCGGGCAAGACGCUCCAACAGAGGAUUGAGCAUCA
B21: 21805100_21819241_1653_CDS_ENSG00000141447_ENST00000319481|human|control|control (ssRNA)
RNA: GGGAGUUCUACAGUCCGACGAUCCUCUUCAAAGGAGCGUGCUGUCACUGCUUCCAAUCUACUCAGGGACCUUUCGGACUCGGAAUCUGACAGCGCAUCAUAGAACUCGUCCUCGCUAAGGAUGCUGGCGGGUGGAGAGCCUUUCAACAGAGGAUUGAGCAUCA
B22: 55348168_55348288_2700_CDS_ENSMUSG00000021488_ENSMUST00000099490|mouse|control|control (ssRNA)
RNA: GGGAGUUCUACAGUCCGACGAUCUGCCUUUGCCGUUCCAGAAUCACUUACGUCUUCACUUAAUGAUCUGUACGAGAGCUCCUUCAGUUCCGAAAGAACGUGCUUCACCACUGCUGUUUCUAUGUCACUAGAAUCUCUGGUUUUCAACAGAGGAUUGAGCAUCA

The assay deals with T1, UNK ZnF1-3 (human, UniProt Q9C0B0 31-174).
T1 sequence: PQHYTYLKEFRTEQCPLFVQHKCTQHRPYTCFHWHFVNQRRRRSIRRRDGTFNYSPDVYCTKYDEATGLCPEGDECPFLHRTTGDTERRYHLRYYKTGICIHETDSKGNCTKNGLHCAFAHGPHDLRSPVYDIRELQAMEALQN
Description: nsRBNS (natural sequence RNA bind-n-seq); RBNS binding buffer (assumed for nsRBNS): 25 mM Tris pH 7.5, 150 mM KCl, 3 mM MgCl2, 0.01% Triton X-100, 500 ug/ml BSA, 20 U/ml SUPERase-In, 4 C; UNK is unkempt and MSI1 is Musashi-1; names of the RNAs are library labels; protein concentration not given here; high values mean tight binding.
In turn, B1 yielded a binding signal of 1.06 enrichment R.
The same measure for B2: 0.554 enrichment R; for B3: 2.04 enrichment R; for B4: 1.01 enrichment R.
The result for B5 reads 0.822 enrichment R; that for B6, 1.25 enrichment R.
The result for B7 reads 2.23 enrichment R; that for B8, 0.625 enrichment R; that for B9, 1.42 enrichment R.
The molecule B10 registered a binding signal of 0.317 enrichment R.
The result for B11 reads 1.44 enrichment R; that for B12, 1.29 enrichment R.
The same measure for B13: 0.818 enrichment R; for B14: 0.775 enrichment R.
The same measure for B15: 1.01 enrichment R; for B16: 2.02 enrichment R.
In turn, B17 showed a binding signal of 1 enrichment R.
The result for B18 reads 1.19 enrichment R.
With B19, the binding signal amounted to 0.916 enrichment R.
B20: the binding signal was found to be 0.695 enrichment R.
As for B21, the binding signal was found to be 0.756 enrichment R.
B22 had a binding signal of 0.586 enrichment R.
